# Data taken from the supplement of paper PMC8728848.
# The other results are listed elsewhere or left out.
# B1: Microvirin-2 (Microcystis aeruginosa) (protein)
# chain: MPNFSHTCSSINYDPDSTILSAECQARDGEWLPTELRLSDHIGNIDGELQFGDQNFQETCQDCHLEFGDGEQSVWLVCTCQTMDGEWKSTQILLDSQIDNNDSQLEIGGSMPNFSHTCSSINYDPDSTILSAECQARDGEWLPTELRLSDHIGNIDGELQFGDQNFQETCQDCHLEFGDGEQSVWLVCTCQTMDGEWKSTQILLDSQIDNNDSQLEIG
# Key:
# Assay in all cases: glycan array binding signal (z-score within array); higher = stronger binding
# Details in all cases: glycan notation: IUPAC condensed, linker removed
# [1] = molecular target: GlcNAc(b1-2)Gal(b1-3)GalNAc
# How it was run: (§1)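 The binding signal is a Z-score computed within each array and averaged over linkers. Arrays of the same protein sequence at different concentrations or buffers were also averaged together. Data originate from 3228 arrays in the Consortium for Functional Glycomics database, kept only where the protein sequence was available.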
# [2] = molecular target: GlcNAc(b1-2)Man(a1-3)[GlcNAc(b1-2)Man(a1-6)]Man(b1-4)GlcNAc(b1-4)GlcNAc
# How it was run: as §1
# [3] = molecular target: GlcNAc(b1-2)Man(a1-3)[GlcNAc(b1-2)Man(a1-6)]Man(b1-4)GlcNAc(b1-4)[Fuc(a1-6)]GlcNAc
# How it was run: as §1
# [4] = molecular target: GlcNAc(b1-2)Man(a1-3)[GlcNAc(b1-4)][GlcNAc(b1-2)Man(a1-6)]Man(b1-4)GlcNAc(b1-4)GlcNAc
# How it was run: as §1
# [5] = molecular target: GlcNAc(b1-2)Man(a1-3)[GlcNAc(b1-4)][GlcNAc(b1-2)Man(a1-6)]Man(b1-4)GlcNAc(b1-4)[Fuc(a1-6)]GlcNAc
# How it was run: as §1
# [6] = molecular target: GlcNAc(b1-2)[GlcNAc(b1-4)]Man(a1-3)[GlcNAc(b1-2)Man(a1-6)]Man(b1-4)GlcNAc(b1-4)GlcNAc
# How it was run: as §1
# [7] = molecular target: GlcNAc(b1-2)[GlcNAc(b1-4)]Man(a1-3)[GlcNAc(b1-4)][GlcNAc(b1-2)Man(a1-6)]Man(b1-4)GlcNAc(b1-4)GlcNAc
# How it was run: as §1
# [8] = molecular target: GlcNAc(b1-2)[GlcNAc(b1-4)]Man(a1-3)[GlcNAc(b1-4)][GlcNAc(b1-2)[GlcNAc(b1-6)]Man(a1-6)]Man(b1-4)GlcNAc(b1-4)GlcNAc
# How it was run: as §1
# [9] = molecular target: GlcNAc(b1-2)[GlcNAc(b1-4)]Man(a1-3)[GlcNAc(b1-4)][GlcNAc(b1-2)[GlcNAc(b1-6)]Man(a1-6)]Man(b1-4)GlcNAc(b1-4)[Fuc(a1-6)]GlcNAc
# How it was run: as §1
# [10] = molecular target: GlcNAc(b1-2)[GlcNAc(b1-6)]Man(a1-6)[GlcNAc(b1-2)Man(a1-3)]Man(b1-4)GlcNAc(b1-4)GlcNAc
# How it was run: as §1
# [11] = molecular target: GlcNAc(b1-2)[GlcNAc(b1-6)]Man(a1-6)[GlcNAc(b1-2)Man(a1-3)]Man(b1-4)GlcNAc(b1-4)[Fuc(a1-6)]GlcNAc
# How it was run: as §1
# [12] = molecular target: GlcNAc(b1-2)[GlcNAc(b1-6)]Man(a1-6)[GlcNAc(b1-4)][GlcNAc(b1-2)Man(a1-3)]Man(b1-4)GlcNAc(b1-4)GlcNAc
# How it was run: as §1
# GlcNAc(b1-3)Fuc = molecular target: GlcNAc(b1-3)Fuc
# How it was run: as §1
# GlcNAc(b1-3)Gal = molecular target: GlcNAc(b1-3)Gal
# How it was run: as §1
# [13] = molecular target: GlcNAc(b1-3)Gal(b1-3)GalNAc
# How it was run: as §1
# GlcNAc(b1-3)Gal(b1-4)Glc = molecular target: GlcNAc(b1-3)Gal(b1-4)Glc
# How it was run: as §1
# [14] = molecular target: GlcNAc(b1-3)Gal(b1-4)GlcNAc
# How it was run: as §1
# [15] = molecular target: GlcNAc(b1-3)Gal(b1-4)GlcNAc(b1-2)Man(a1-3)[GlcNAc(b1-3)Gal(b1-4)GlcNAc(b1-2)Man(a1-6)]Man(b1-4)GlcNAc(b1-4)GlcNAc
# How it was run: as §1
# [16] = molecular target: GlcNAc(b1-3)Gal(b1-4)GlcNAc(b1-2)Man(a1-3)[GlcNAc(b1-3)Gal(b1-4)GlcNAc(b1-2)Man(a1-6)]Man(b1-4)GlcNAc(b1-4)[Fuc(a1-6)]GlcNAc
# How it was run: as §1
# [17] = molecular target: GlcNAc(b1-3)Gal(b1-4)GlcNAc(b1-2)[GlcNAc(b1-3)Gal(b1-4)GlcNAc(b1-6)]Man(a1-6)[GlcNAc(b1-3)Gal(b1-4)GlcNAc(b1-2)Man(a1-3)]Man(b1-4)GlcNAc(b1-4)GlcNAc
# How it was run: as §1
# [18] = molecular target: GlcNAc(b1-3)Gal(b1-4)GlcNAc(b1-3)Gal(b1-4)GlcNAc
# How it was run: as §1
# [19] = molecular target: GlcNAc(b1-3)Gal(b1-4)GlcNAc(b1-3)Gal(b1-4)GlcNAc(b1-2)Man(a1-3)[GlcNAc(b1-3)Gal(b1-4)GlcNAc(b1-3)Gal(b1-4)GlcNAc(b1-2)Man(a1-6)]Man(b1-4)GlcNAc(b1-4)GlcNAc
# How it was run: as §1
binder,measurement,setting,value
B1,glycan array binding signal (z-score),[1],-0.133
same,glycan array binding signal (z-score),[2],-0.128
same,glycan array binding signal (z-score),[3],-0.121
same,glycan array binding signal (z-score),[4],-0.139
same,glycan array binding signal (z-score),[5],-0.146
same,glycan array binding signal (z-score),[6],-0.139
same,glycan array binding signal (z-score),[7],-0.138
same,glycan array binding signal (z-score),[8],-0.141
same,glycan array binding signal (z-score),[9],-0.146
same,glycan array binding signal (z-score),[10],-0.133
same,glycan array binding signal (z-score),[11],-0.13
same,glycan array binding signal (z-score),[12],-0.137
same,glycan array binding signal (z-score),GlcNAc(b1-3)Fuc,-0.133
same,glycan array binding signal (z-score),GlcNAc(b1-3)Gal,-0.138
same,glycan array binding signal (z-score),[13],-0.123
same,glycan array binding signal (z-score),GlcNAc(b1-3)Gal(b1-4)Glc,-0.144
same,glycan array binding signal (z-score),[14],-0.13
same,glycan array binding signal (z-score),[15],-0.125
same,glycan array binding signal (z-score),[16],0.01
same,glycan array binding signal (z-score),[17],-0.109
same,glycan array binding signal (z-score),[18],-0.145
same,glycan array binding signal (z-score),[19],-0.019
